Experimental data as given in ChEMBL document CHEMBL4888484, “Replenishing the malaria drug discovery pipeline: Screening and hit evaluation of the MMV Hit Generation Library 1 (HGL1) against asexual blood stage Plasmodium falciparum ,using a nano luciferase reporter read-out” (2022).
Screen size: about 150,000 compounds; about 540 (0.36%) showed an effect of 50% or more. Some of the results follow.

test system: Plasmodium falciparum; assay: Primary screen in NF54 nanoGlo assay, in single point, at 2uM, 72h; a lower Z score goes with more inhibition; assay type: functional, Erythrocyte; details: timepoint 72 hour

Structure (SMILES) | % Inhibition [%] | Z score
Cc1cc(C(=O)N(C)Cc2ccccc2O)c2nc3n(c2n1)CCCCC3 | -7 | 1.35
Cc1cc(C)n([C@@H](C)CNC(=O)c2cc(C(F)(F)F)n[nH]2)n1 | -2 | 0.23
O=C1CCC2(CCN(C(=O)Cc3ccc(Cl)c(Cl)c3)CC2)N1 | -12 | 2.43
Cc1ccnc2nc(-c3nc([C@H]4CCOC4)no3)nn12 | -14 | 1.89
O=C(Cc1n[nH]c(=O)c2ccccc12)NC[C@@H]1CCCN2CCCC[C@H]12 | -13 | 1.64
O[C@@H]1C[C@H](O)C12CCN(Cc1ccc3ccn(Cc4ccccc4)c3c1)CC2 | -13 | 1.32
CCCN(C(=O)c1cccs1)C1CCN(C(=O)c2n[nH]c(C)c2C)CC1 | -11 | 1.4
O=C(NCC1(N2CCOCC2)CCCCCC1)c1cn(CCc2ccccc2)nn1 | 6 | -0.52
COc1ccccc1NC(=O)CN1CCO[C@H]2COCC[C@H]21 | -7 | 1.42
CC(C)(CN1C(=O)C2CC3CCCCC3N2C1=O)N1CCOCC1 (centres undefined) | -13 | 1.4
COC1CCCCC1NC(=O)N(CCC(F)(F)F)C1CCC1 (centres undefined) | -7 | 1.12
CCOC(=O)c1cnc2nc(C)ccc2c1N1CCOCC1 | -18 | 1.49
O=C(Nc1ccc(Cl)c(Cl)c1)[C@@H]1CS(=O)(=O)CN1C(=O)c1ccccc1 | -9 | 1.75
O=C(O)CN1CC[C@H](OCCCc2ccccc2)C1 | -10 | 1.3
CCOc1ncccc1-c1nc(C)nc2c1cnn2C | 0 | -0.1
Cc1nc(-c2c(-c3ccccc3)ncn2[C@H](C)C(N)=O)c[nH]1 | -5 | 0.94
O=C(c1ccco1)N1CCN(Cc2c(-c3ccc(Cl)cc3)nc3ccc(-c4cccc(C(F)(F)F)c4)cn23)CC1 | -31 | 3
CC(C)[C@@H](C(=O)N(C)c1ccn(C)n1)c1cccnc1 | -9 | 1.71
CCn1cnc2c1c(=O)n(CCC(C)C)c(=O)n2-c1ccc(C(C)C)cc1 | -9 | 1.15
NC(=O)C1CCN(CCC(=O)N2CCc3cc4ccc3[C@@H]2c2cccc(c2)OCCCNC(=O)c2cc(ccc2O)O4)CC1 | 92 | -17.59
COc1cccc(NCc2ccccc2-c2nnc(-c3ccccc3Cl)o2)c1 | -9 | 1.44

Structure (SMILES) | % Inhibition [%] | Z score
O=C(NC[C@H]1CCCN2CCCC[C@@H]12)c1ccc2c(c1)OCO2 | -4 | 0.44
N#Cc1cccnc1NCCNc1cccc2ccccc12 | 3 | -0.29
C[C@@H](c1cccc(Br)c1)N1CCC(c2nncn2C)CC1 | -13 | 2.07
CCS(=O)(=O)N1CCc2cc(S(=O)(=O)N(C)Cc3ccccc3)ccc2C1 | 3 | -0.27
C[C@@H](C(=O)Nc1nnc(C2(c3ccccc3)CC2)s1)c1cccs1 | -11 | 2.15
CNC(=O)[C@H]1CC[C@H](CNc2ccc(Cl)c(C)n2)CC1 | -5 | 0.55
Cc1nc(CN(C)CC(=O)NCCOc2ccccc2)no1 | -6 | 0.85
CCCN(C)c1cc(Oc2ccc(C)cc2OC)ncn1 | 1 | -0.2
CC(C)N(C)S(=O)(=O)N1CCC[C@@H]1CC(=O)c1ccc(F)cc1 | -12 | 1.47
CCNc1ncc(S(=O)(=O)N2CCC[C@H](N(C)C)C2)cc1Cl | -9 | 1.1
O=C(CC1=CCCCC1)NC[C@]1(O)CCOC1 | -6 | 0.85
NC(=O)c1ccccc1NC(=O)c1cnc(OC2CCOCC2)c(Cl)c1 | -6 | 1.16
CC(C)c1nc(CCN(C)C(=O)c2nc3c(s2)CCCC3)no1 | 17 | -2.24
CC(=O)N1CC[C@@](N)(C(=O)Nc2cnc3ccccc3c2)C1 | -5 | 0.79
O=C(c1cc2sccc2n1CCc1ccccc1)N1CCCC1 | -19 | 3.48
COc1ccccc1Oc1nc(N2CCC(C)CC2)nc2c1CN(C(=O)c1ccc(F)cc1)CC2 | 0 | 0.04
Cc1nc(-c2ccc(-c3noc(Cc4ccc(F)cc4)n3)cc2)cs1 | -10 | 0.97
COC[C@@]1(CO)CCN(c2nc3cc(S(N)(=O)=O)ccc3[nH]2)C1 | 1 | -0.17
CC(C)CC(C)N(C)CC(=O)NC(C)(C#N)C1CC1 (centres undefined) | -3 | 0.38
CCN1CCN(c2c(CN(CC(C)C)C(=O)COC)c(C)nn2-c2cccc(F)c2)CC1 | 9 | -1.11
CCc1nn(C)cc1C(=O)Nc1cccc(N(C)C(C)=O)c1 | 2 | -0.43
